Source: the supplement of paper PMC10338343
± gives the standard deviation. The list shows a part of the results, in another mix than the full data.

Tested on: MIWI (PIWIL1) piRISC loaded with L1MC piRNA (30 nt)
Assay: pre-steady-state target cleavage rate (min^-1); MIWI and MILI are mouse PIWI proteins and EfPiwi is from a freshwater sponge; tags in brackets are library labels; higher = faster piRNA-guided slicing of the target
Conditions: guide: L1MC piRNA 5'p-UAACUAAAUACUAUGCAAGCUGUAGGUCCU
Method in brief: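 At 33 °C in HEPES–potassium acetate buffer, a transcribed, DNA-blocked target RNA library […] was exposed for 0–8 or 0–960 min to 1 nM active affinity-purified piRISC carrying a single synthetic guide, with or without 500 nM GTSF1 partner protein. Uncleaved targets were sequenced and normalised to depth and to weakly complementary targets. With three trials pooled and k3 capped at 0.0001 min^-1, a burst-and-steady-state fit produced the pre-steady-state cleavage rate.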

[1] = auxiliary factor: 500 nM mouse GTSF1
[2] = auxiliary factor: none (no GTSF1)
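Note: 1 nM active piRISC with 0.1 nM target library at 33 °C single turnover.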

Sequence | pre-steady-state target cleavage rate [1] | pre-steady-state target cleavage rate [2]
UGGACCUACAGCUUGCAUAGAAUAUAGUUA | 0.324 ± 0.031 | 0.01 ± 0.0046
UCCUGGAACUGCUUGCAUAGUAUUUACUUA | 0.151 ± 0.025 | 0.0139 ± 0.0032
UCCUCCUACAGCUUGCAUAGAAUUAAGUUA | 0.264 ± 0.038 | 0.00653 ± 0.0024
UGGACCUACAGCUUGCAUUGUAAUUAGUUA | 0.45 ± 0.035 | 0.0125 ± 0.0045
UCCUGGAUGAGCUUGCAUAGUAUUAACUUA | 0.00978 ± 0.0045 | 0.00409 ± 0.0028
UCGACCUACAGCAUGCAUAGAAUUUAGUUA | 0.34 ± 0.047 | 0.00735 ± 0.0016
UCCUCCUUGAGCUUGCAUAGUAUUUAGUUA | 0.691 ± 0.067 | 0.0333 ± 0.0067
UCCACCUACAGCAUGCAUAGUAUUUAGUUA | 0.977 ± 0.054 | 0.0309 ± 0.0079
UCGACCUACAGGAUGCAUAGUAUUUAGUUA | 0.908 ± 0.065 | 0.0193 ± 0.004
UCCUGGAUGUCCUUGCAUAGUAUAUAGUUA | 0.0245 ± 0.0072 | 0.00503 ± 0.0025
UGGACCUACAGCUUGCAUAGUAUUUGGUUA | 1.21 ± 0.054 | 0.0534 ± 0.011
AGGACCUACAGCUAGCAUAGUAAUUAGUUA | 0.745 ± 0.06 | 0.0091 ± 0.0021
UCCUGGUACAACUUGCAUAGUAUUUAGUUA | 0.855 ± 0.044 | 0.0552 ± 0.011
UCGACCUACUGCUUGCUUAGUAUUUAGUUA | 1.52 ± 0.061 | 0.031 ± 0.0067
UCGACCUACUGGUUGCAUAGUAUUUAGUUA | 1.11 ± 0.035 | 0.0375 ± 0.0059
AGGACCUACAGGUUGCAUACUAUUUAGUUA | 0.314 ± 0.025 | 0.0215 ± 0.0038
UCCUGGAUCAGCUUGCUUACUAUUUAGUUA | 0.161 ± 0.011 | 0.0105 ± 0.003
UCCUGGAUGUCCUUGCAUAGUAUUUAGUUU [g2:g19:cont:t1U] | 0.171 ± 0.028 | 0.00862 ± 0.0025
UCCUGGAUGUGCUUGCUUAGAAUUUAGUUA | 0.00451 ± 0.0036 | 0.00226 ± 0.0022
UCCUGGUACAGCAUGCAUAGUAUUUAGUUA | 0.936 ± 0.061 | 0.0248 ± 0.0059
UCCUCCUACAGCUUGCAUAGUAUUUAGGUA | 0.342 ± 0.074 | 0.00586 ± 0.0028
UCCUGCUAGCAGCUUGCAUAGUAUUUAGUUA | 1.17 ± 0.079 | 0.0552 ± 0.0095

Sequence | pre-steady-state target cleavage rate [1] | pre-steady-state target cleavage rate [2]
UCCUCCUACAGCUUGCAUAGUAUAAAGUAA | 0.207 ± 0.033 | 0.00274 ± 0.002
UCCUGCUACAGCUUUCAUAGUAUUUAGUUA | 0.409 ± 0.031 | 0.0119 ± 0.0022
UCCUGGAUCAGCUUGCAUAGUGUUUAGUUA | 1.12 ± 0.046 | 0.0408 ± 0.0089
UCCUCCUACAGCUUGCAUAGUAUUUUGAAA | 0.394 ± 0.046 | 0.00421 ± 0.0032
UCGACCUAGUCCUUGCAUAGUAUUUAGAAA | 0.325 ± 0.051 | 0.00262 ± 0.0015
AGGUCCUACAGCUUGCAUAGUAAUUAGUUA | 0.82 ± 0.045 | 0.0393 ± 0.008
UCCUGCUACAGCUAGCAUAGUAUUUAGUAA | 0.524 ± 0.038 | 0.00466 ± 0.0021
UCCUGGAUCAGCUUGCUUAGUAUUUACUUA | 0.492 ± 0.038 | 0.0215 ± 0.0046
AGGACCUACAGCUUGCAUAGAAUUUUGUUA | 0.501 ± 0.047 | 0.0183 ± 0.0047
UCCACGUACAGCUAGCAUAGUAUUUAGUUA | 0.815 ± 0.028 | 0.0177 ± 0.0033
UCGACCAACAGCUUCCAUAGUAUUUAGUUA | 0.0723 ± 0.016 | 0.0035 ± 0.0011
UCCUGGAUGUGCUUGCAUACUAUUUAGUAA | 0.0415 ± 0.0087 | 0.00941 ± 0.0029
AGGUCCUACAGCAUGCAUAGUAUUUAGUUA | 1.33 ± 0.062 | 0.107 ± 0.026
UCCUGGAUGAGCUUGGAUAGUAUAUAGUUA | 0.234 ± 0.04 | 0.0165 ± 0.0054
AGGACCUACACCUUGCAUAGUAUUUAGAUA | 0.408 ± 0.043 | 0.0455 ± 0.01
UCCUCCUACAGCUUGCAAAGUAUUUAGUUA | 1.14 ± 0.039 | 0.0317 ± 0.0066
UCCUGCAACAGCUUGCAUAGUAUUUAGAUA | 0.398 ± 0.04 | 0.0238 ± 0.0089
UCCUGGAACAGCUUGCAUAGUAUUGUAGUUA | 0.368 ± 0.022 | 0.0236 ± 0.0056
UCCUGGAUGUGCAUGCAUAGUAUUUUGUUA | 0.0233 ± 0.0055 | 0.00456 ± 0.0022
UCCACCUACAGCUUGCAUAUAUUUAGUUA | 0.324 ± 0.038 | 0.00241 ± 0.0021
UGGACCUACAGCUUGCAUAGUAUUUGUUA | 0.341 ± 0.038 | 0.00385 ± 0.0021
UGGACCUUCAGCUAGCAUAGUAUUUAGUUA | 1.26 ± 0.055 | 0.0323 ± 0.0066

Sequence | pre-steady-state target cleavage rate [1] | pre-steady-state target cleavage rate [2]
UCCUCGAACAGCUUGCAUAGUAUUUAGUAA | 0.982 ± 0.042 | 0.0424 ± 0.008
UCCUGGAACAGCUUGCAUAGUAUUUAGUCUA | 0.0686 ± 0.012 | 0.0111 ± 0.0022
UCCUGCUACAGGAAGCAUAGUAUUUAGUAA | 0.403 ± 0.063 | 0.00245 ± 0.0018
UCCUGGAUGAGCUUGCAUUGUAUUUAGUUA | 0.491 ± 0.033 | 0.0297 ± 0.009
UCCUGGAUGUGCUUGCUUAGUAUUUUGUUA | 0.0267 ± 0.006 | 0.00734 ± 0.0026
UCCUGGAUGAGCAUGCAUAGUAUUUACUUA | 0.239 ± 0.033 | 0.00683 ± 0.0021
UCCUGGUUGAGCUUGCAUAGUAUUUACAAA | 0.0391 ± 0.012 | 0.00408 ± 0.0037
AGGACCUACAGGUUGCAUAGUAUUUACUUA | 0.38 ± 0.054 | 0.0386 ± 0.008
UCCUGGAUCACCUUGCUUAGUAUUUAGUUA | 0.109 ± 0.02 | 0.00833 ± 0.0029
UCCUGGAUGAGCUUGCAUAGUAUGUUAGUUA | 0.377 ± 0.033 | 0.0117 ± 0.0036
UCCUCGUACAGCUUGCAUUGUAUUUAGUUA | 0.979 ± 0.036 | 0.0298 ± 0.0072
UCCUGGAUGUCCUGCAUAGUAUUUAGUUA | 0.0445 ± 0.011 | 0.0046 ± 0.0019
AGGACCUACUCCUUGCAUAGUAUUUAGAAA | 0.381 ± 0.052 | 0.0124 ± 0.0034
UCCUGGAUGUGCUUGCAAAGUAUUUUGUUA | 0.0495 ± 0.008 | 0.0109 ± 0.0032
UCCUGGAUCAGCUUGCAUACUAUUUAGAAA | 0.0617 ± 0.018 | 0.00418 ± 0.0036
UCGACCUACAGCUUGCAUAGUAUUUGGUUA | 0.847 ± 0.032 | 0.0586 ± 0.01
UCGACCUACAGCUUGCAAAGUAUUUAGUUA | 1.47 ± 0.056 | 0.0377 ± 0.0085
AGGACCUACAGCUUGCAUAGUAUUUUCAUA | 0.304 ± 0.044 | 0.00902 ± 0.005
UCGACCUACAGCUUGCAUAGGAUUUAGUUA | 0.0503 ± 0.0089 | 0.00712 ± 0.0025
UCCUGGAUGUGCUUGCAUUGUAUUAAGUUA | 0.00888 ± 0.0034 | 0.00366 ± 0.0026
UCGACCUACAGCUUGCAUUGUAAUUAGUUA | 0.48 ± 0.027 | 0.0109 ± 0.003
